# Experimental data from PMC6919601, “Identification of Plasmodium dipeptidyl aminopeptidase allosteric inhibitors by high throughput screening” (PLoS ONE, 2019).
# Among all 110,000 compounds or so, about 230 (0.21%) showed an effect of 50% or more. Some of the results follow.
# Target: DPAP1 (Plasmodium falciparum, UniProt Q8IIJ9)
# Experiment: primary screen, percent inhibition; read by cleavage of a fluorogenic dipeptide substrate; higher = more effect of the substance
# Parameters: species or system P. falciparum D10 trophozoite lysates; single well
# 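Note: 30 min substrate incubation versus DMSO and 10 µM JCP410 controls.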
# Sequence of DPAP1 (Q8IIJ9 whole entry, looked up): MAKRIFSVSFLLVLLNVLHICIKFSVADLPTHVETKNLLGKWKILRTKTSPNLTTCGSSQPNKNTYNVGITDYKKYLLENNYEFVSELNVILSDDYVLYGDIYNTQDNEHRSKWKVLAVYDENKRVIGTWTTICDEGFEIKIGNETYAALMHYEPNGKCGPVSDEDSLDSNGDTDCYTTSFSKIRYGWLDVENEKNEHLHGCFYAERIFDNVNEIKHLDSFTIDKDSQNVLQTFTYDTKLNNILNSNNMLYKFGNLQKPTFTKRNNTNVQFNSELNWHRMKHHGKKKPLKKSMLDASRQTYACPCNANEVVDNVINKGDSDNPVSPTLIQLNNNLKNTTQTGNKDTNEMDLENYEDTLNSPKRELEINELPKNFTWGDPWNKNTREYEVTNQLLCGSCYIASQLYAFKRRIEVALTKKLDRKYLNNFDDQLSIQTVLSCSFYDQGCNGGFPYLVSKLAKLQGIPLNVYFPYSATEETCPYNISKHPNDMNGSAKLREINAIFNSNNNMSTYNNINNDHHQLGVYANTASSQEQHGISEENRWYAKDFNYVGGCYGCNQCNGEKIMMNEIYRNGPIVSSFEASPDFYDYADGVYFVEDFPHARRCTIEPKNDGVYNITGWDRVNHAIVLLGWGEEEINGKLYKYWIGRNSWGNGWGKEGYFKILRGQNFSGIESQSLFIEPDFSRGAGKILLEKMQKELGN
row,Compound,% Inhibition @ 10 uM [%]
1,COc1cccc(/C=C2/C(=N)N3N=C(c4ccccc4Cl)SC3=NC2=O)c1O,-7.18
2,O=C(Cn1cnc2c(nnn2-c2ccc(F)cc2)c1=O)NC1CCCC1,-3.94
3,Cc1n[nH]c2c1C(c1ccc(C(C)C)cc1)C(C#N)=C(N)O2 (stereo not drawn),5.31
4,CCN1CC2=C(OC(N)=C(C#N)C2c2ccccc2F)/C(=C/c2ccccc2F)C1 (stereo not drawn),3.05
5,CC(=O)C1=C(O)C(=O)N(CCCN2CCOCC2)C1c1ccc(F)cc1 (stereo not drawn),-3.01
6,Cc1cc(C)nc(SCCn2c(N3CCOCC3)nc3c2c(=O)[nH]c(=O)n3C)n1,4
7,O=C(NCCc1nc2ccccc2n1CCCOc1ccccc1)C1CCCCC1,-1.74
8,O=C(COc1ccccc1)n1c2ccccc2c2ccccc21,2.38
9,N#CC1=C(N)Oc2c(c(=O)oc3ccccc23)C1c1cc(Br)cs1 (stereo not drawn),0.317
10,COc1ccc(Nc2nc(-c3c(C)nc4sccn34)cs2)cc1,-2.71
11,CN1CCN(C(=O)c2ccc(COc3cc(Cl)ccc3Cl)o2)CC1,-1.33
12,CCc1ccc(C2c3c(-c4ccccc4O)n[nH]c3C(=O)N2Cc2ccco2)cc1 (stereo not drawn),0.366
13,COc1cccc(N2C(=O)CC(N3CCC(C)CC3)C2=O)c1 (stereo not drawn),-8.46
14,Oc1oc2ccccc2c2nc(-c3cc(-c4ccccc4)nn3-c3ccccc3)nc1-2,0.605
15,Cc1cccc(C(=O)Nc2ccc(S(=O)(=O)N3CCCC3)cc2)c1,0.0974
16,COCCN1C(=O)c2ccccc2C(C(=O)NCCCOC(C)C)C1c1cn(C)c2ccccc12 (stereo not drawn),-2.8
17,Cc1ccc(C(C)C)cc1OCCCCCN1CCNCC1,-7.81
18,COc1ccc2c(CNCCc3ccc(OC)c(OC)c3)c(C(=O)O)n(Cc3ccccc3F)c2c1,-4.37
19,O=C(NCc1ccccc1)Nc1cccc(Cl)c1,2.47
20,CCOC(=O)c1c(-n2cccc2)sc2c1CCCC2=O,4.44
21,COc1cc(NC(=O)c2ccc(Br)o2)ccc1NC(=O)C(C)C,-1.65
22,CCOc1ccccc1C(=O)N1CCN(c2ccc(Cl)cc2)CC1,0.727
23,N/C(=N\OC(=O)c1ccc(Cl)cc1)c1nonc1N,-0.615
24,COc1cccc(OC)c1C(=O)N1CCN(Cc2ccc(Br)cc2)CC1,1.71
25,COc1cccc(CNC(=O)C2CCCN(S(=O)(=O)N(C)C3CCCCC3)C2)c1 (stereo not drawn),-4.68
26,COc1ccc(S(=O)(=O)NCCc2ccco2)cc1OC,3.47

row,Compound,% Inhibition @ 10 uM [%]
1,Cc1nnc(SCC(=O)O)n1/N=C/c1cc(Br)ccc1O,5.77
2,O=C(C1=C(O)C(=O)N(c2cccnc2)C1c1ccc(O)cc1)c1ccc(Br)cc1 (stereo not drawn),-16.1
3,COc1cc(C(C)=O)ccc1OCC(O)CN1CCN(c2cccc(Cl)c2)CC1 (stereo not drawn),1.02
4,c1cn(CCCNc2ncnc3sc4c(c23)CCCCC4)cn1,-3.4
5,COc1cccc2cc(-c3nc(-c4ccccc4)cs3)c(=O)oc12,12.9
6,COc1cccc(NC(=O)c2scc3c2CCCC3)c1,-6.36
7,Cc1ccc(C2C(C(=O)O)c3ccccc3C(=O)N2C)c(C)c1 (stereo not drawn),5.12
8,CC1(C)CC(NC(=O)c2ccco2)CC(C)(CNC(=O)c2ccco2)C1 (stereo not drawn),-2.8
9,CN1CCN(C2=NC(=O)/C(=C/c3cccc(F)c3)S2)CC1,-0.48
10,O=S(=O)(/N=C1\C=C2N(CCO)CCOC2(O)c2ccccc21)c1ccc(F)cc1 (stereo not drawn),0.0539
11,COC(=O)C1=CN(C2CCCC2)C=C(C(=O)OC)C1c1ccc(Cl)s1,-9.5
12,COCCCNCc1c(C(=O)O)c(C)n(Cc2ccccc2F)c1C,-3.67
13,Oc1cccnc1CCc1ccccc1,-0.999
14,O=C(O)c1nccnc1C(=O)NCc1ccccc1,3.96
15,O=C(CCC1CCCC1)N1CCNCC1,-0.962
16,Fc1ccccc1N1CCN(Cc2ccoc2)CC1,-0.828
17,CCN(C(=O)/C=C/c1ccccc1)c1ccccc1,-0.197
18,Cc1cc(C)n(C(=O)c2cc3c(C)nn(-c4ccccc4)c3s2)n1,-1.68
19,CCOc1ccccc1-n1nnc(-c2nc(-c3cccnc3)no2)c1N,5.95
20,CCN1C(=O)CC(C(=O)Nc2ccc(OC)cc2)S/C1=N\c1ccc(OC)cc1 (stereo not drawn),-3.78
21,Cc1ccc(P(=O)(O)c2ccc(C)cc2)cc1,-3.93
22,Cc1ccccc1OCC(=O)Nc1ccccc1C(N)=O,-4.97
23,Sc1nnc(-c2ccc3ccccc3n2)n1-c1ccccc1,-1.46
24,CC(C)(C)C1CCc2c(sc3ncn(CC(=O)Nc4ccccc4)c(=O)c23)C1 (stereo not drawn),3.97
25,Cc1ccc(S(=O)(=O)Nc2cccc(/C=C/C(=O)O)c2)cc1,-1.97
26,COc1ccc(Br)cc1CNC(=O)CCc1nc(-c2ccc(C)cc2)no1,-1.59

row,Compound,% Inhibition @ 10 uM [%]
1,CCOc1ccc(C(=O)Nc2ccc(Br)c(C)c2)cc1,0.823
2,Cc1noc2ncn(CC(=O)NCCN3CCOCC3)c(=O)c12,2.4
3,C=C(C)CN(CC)Cc1ccc(-c2ccccc2[N+](=O)[O-])o1,-1.75
4,CCc1ccc(NC(=O)c2cccc(OC)c2)cc1,-7.08
5,COCCCn1c(=N)c(S(=O)(=O)c2ccc(C)cc2)cc2c(=O)n3cccc(C)c3nc21,5.12
6,O=C(Nc1cc(Cl)c(O)c(Cl)c1)C1CCCCC1,2.03
7,CC(C)OCCCNC(=O)Cn1ncc2c(Cl)cccc21,0.596
8,Cc1nc2sc3c(Cl)ncnc3c2c2c1CCCC2,-8.67
9,CN(c1ccccc1)S(=O)(=O)c1ccc(N)cc1,3.57
10,C#CCOc1nc(OCC#C)nc(N2CCCCC2)n1,-2.92
11,CC[C@@H](C)[C@H](NC(=O)Cc1c[nH]c2ccccc12)C(=O)N[C@@H](CCc1ccccc1)C(=O)CO,3.66
12,CC(C)C(=O)Nc1ccc(C(=O)Nc2ccccc2C(F)(F)F)cc1,-5.14
13,CC(=O)c1ccc(NC(=O)COc2ccc(Cl)cc2C)cc1,-0.116
14,COCCn1c(CCC(=O)NCCc2ccc(OC)c(OC)c2)nc2cccnc21,-4.24
15,CCN(CC)CCN(CC)Cc1cccc(F)c1,2.7
16,COc1ccc(CCNC(=O)c2cc(=O)c3cc(Cl)ccc3o2)cc1OC,-3.24
17,COc1ccc(-c2noc(-c3nnn(-c4ccc(C(C)C)cc4)c3N)n2)cc1,-3.88
18,COc1ccc(C(=O)N2CCN(c3cccc(Cl)c3)CC2)cc1OC,-2.22
19,Cc1cc(NC(=O)COCc2cc(-c3ccc4c(c3)OCO4)on2)nn1Cc1ccc(Cl)cc1,1.34
20,Cc1cc(=O)n(CC(=O)NCc2ccc(OC(C)C)cc2)c2c1c(C)nn2C,3.82
21,CCOc1ccc(C(=O)Nc2ccccc2OCC)cc1,3.49
22,CC(=O)Nc1ccc(NC(=O)Cn2cnc3ccccc3c2=O)cc1,-3.78
23,CSc1ncccc1C(=O)NCc1ccccc1C(F)(F)F,1.68
24,C(=C\c1nc2cccnc2[nH]1)/c1ccccc1,-10.5
25,CCOC(=O)c1c(C)[nH]c(C)c1S(=O)(=O)NCC1CCCO1 (stereo not drawn),-5.94
26,CN(CCNC(=O)c1cc2c(O)nc3ccccc3c2s1)Cc1ccccc1,1.23

row,Compound,% Inhibition @ 10 uM [%]
1,Cc1ccc(-c2noc(CNC(=O)C34CC5CC(CC(C5)C3)C4)n2)cc1,2.14
2,Cc1cccc(NS(=O)(=O)c2cccc(C(=O)Nc3cccc(C(=O)O)c3)c2)c1,-3.55
3,CCC(=O)N1CC(=O)Nc2ccc(C)cc2C1c1ccccc1 (stereo not drawn),-3.77
4,CC(C)c1nc2sc3c(NCCCN(C)C)ncnc3c2c2c1COC(C)(C)C2,3.73
5,Cc1cc2nc(NC(=O)C3C4C=CC(C4)C3C(=O)O)sc2cc1C (stereo not drawn),-1.28
6,COCCCN1C(=O)C(O)=C(C(=O)c2ccccc2)C1c1ccc(C)cc1 (stereo not drawn),5.12
7,COc1ccc(-n2nnc(-c3nsc(NC(=O)c4ccc(Cl)cc4)n3)c2C)cc1Cl,4.23
8,Cc1cc(NC(=O)c2ccc(C(=O)Nc3cc(C)c(O)c(C)c3)cc2)cc(C)c1O,4.07
9,O=C(N1CCOCC1)C12CC3CC(C1)CC(n1cnc(Cl)n1)(C3)C2,-1.61
10,COc1ccc(CNC(=O)CSCc2cccc(Br)c2)cc1,0.0719
11,O=C(Cn1nnc(-c2ccc(OCc3cccc(C(F)(F)F)c3)cc2)n1)N1CCOCC1,2.1
12,c1ccc(-n2ncc3c(N4CCN(C5CCCCC5)CC4)ncnc32)cc1,2.4
13,O=C(c1ccc(S(=O)(=O)NCC2CCCO2)cc1)N1CCN(c2ccccc2F)CC1 (stereo not drawn),4.39
14,Cc1cc(C)cc(NC(=O)COc2ccccc2C)c1,1.92
15,COc1cc(OC)cc(-n2nnc(-c3nc(-c4ccc5c(c4)OCO5)no3)c2N)c1,8.09
16,O=C(Cc1ccc(F)cc1)N1CCn2c(nc3ccccc32)C1,2.34
17,O=C(NCc1ccco1)c1sc2ccccc2c1Cl,-3.69
18,CCC(C)NC(=O)c1cc(-c2ccccc2O)on1 (stereo not drawn),-0.591
19,CCC1CCCCN1C(=O)C1=C(C)C(=O)OC12CCC(C)CC2 (stereo not drawn),1.55
20,CCCc1nnc(NC(=O)c2nc(SCc3ccc(F)cc3)ncc2Cl)s1,2.41
21,Cc1sc(NC(=O)c2ccco2)c(C(c2ccccn2)N2CCCCC2)c1C (stereo not drawn),0.145
22,COc1ccc(NC(c2ccccc2)c2ccncc2)cc1 (stereo not drawn),0.986
23,Cc1ccc(NC(=O)C2c3ccccc3Oc3ccccc32)nc1,-0.142
24,O=C(CCC1CCCC1)Nc1cccnc1,-2.65
